{"source": "the RNAGym collection of RNA variant scans (doi:10.1073/pnas.2313332121)", "parents": {"B1": {"name": "TPR 5TU (parent)", "chain": "GGAUCUUCUCGAUCUAACAAAAAAGACAAAUCUGCCACAAAGCUUGAGAGCAUCUUCGGAUGCAGAGGCGGCAGCCUUCGGUGGCGCGAUAGCGCCAACGUUCUCAACUAUGACACGCAAAACGCGUGCUCCGUUGAAUGGAGUUUAUCAUG"}}, "note": "Variants at the background level are over-represented here."}
{"variants_of": "B1", "assay": "polymerase ribozyme fitness, log enrichment relative to wild type (log ratio); higher = more active; in vitro selection for triplet polymerase activity", "summary_of_the_method": "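Fitness compares each genotype's enrichment to that of the wild type on a logarithmic scale, averaging replicates with inverse-variance weights. The logarithm is base 2. Enrichment came from Illumina sequencing of input and output libraries after one triplicate round of in vitro selection, which included frozen incubation at −7 °C, of PCR-built, transcribed mutant libraries of each subunit of a heterodimeric triplet polymerase ribozyme. Only genotypes with ≥10 input reads and ≥1 read per output were kept.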"}
{"variant": "A3C C10G A17C C27G C38A U53A G136C C149U", "polymerase ribozyme fitness (log ratio)": "≤ -4.2"}
{"variant": "A3C C10G A26C A47G U77C C85U G117A A119C", "polymerase ribozyme fitness (log ratio)": "≤ -4.2"}
{"variant": "A3C C10G A49C C54U A60U A91C G100A G136U U139C", "polymerase ribozyme fitness (log ratio)": "≤ -4.2"}
{"variant": "A3C C18G U56A C57A C93G U146G", "polymerase ribozyme fitness (log ratio)": "≤ -4.2"}
{"variant": "A3C C32G G50C G58A C85A A89C U90G G141C", "polymerase ribozyme fitness (log ratio)": "≤ -4.2"}
{"variant": "A3C C43U U53A U61G U101G U139A", "polymerase ribozyme fitness (log ratio)": "≤ -4.2"}
{"variant": "A3C C54G G58C C75G G94A", "polymerase ribozyme fitness (log ratio)": "≤ -4.2"}
{"variant": "A3C C85U", "polymerase ribozyme fitness (log ratio)": -1.46}
{"variant": "A3C C85U C95U C114U G133C", "polymerase ribozyme fitness (log ratio)": "≤ -4.2"}
{"variant": "A3C C93A A98U", "polymerase ribozyme fitness (log ratio)": -1.79}
{"variant": "A3C G25A A40U G71A C85U C96U A119C A121G G140C", "polymerase ribozyme fitness (log ratio)": "≤ -4.2"}
{"variant": "A3C G34A C96G A113U", "polymerase ribozyme fitness (log ratio)": "≤ -4.2"}
{"variant": "A3C G42C A122G C132U A137C", "polymerase ribozyme fitness (log ratio)": "≤ -4.2"}
{"variant": "A3C G58A C72A G81A A91G", "polymerase ribozyme fitness (log ratio)": "≤ -4.2"}
{"variant": "A3C G58C C63U C95G", "polymerase ribozyme fitness (log ratio)": -1.68}
{"variant": "A3C U4A A121G G141A A142C", "polymerase ribozyme fitness (log ratio)": -4.03}
{"variant": "A3C U6G G46C C75A C79A G86A C103G G126U", "polymerase ribozyme fitness (log ratio)": "≤ -4.2"}
{"variant": "A3C U7G C87U C93G A98G G100U A120C U148A U151G", "polymerase ribozyme fitness (log ratio)": "≤ -4.2"}
{"variant": "A3C U33G A39C A52C A110G", "polymerase ribozyme fitness (log ratio)": "≤ -4.2"}
{"variant": "A3C U45A C51U C72U A91U", "polymerase ribozyme fitness (log ratio)": "≤ -4.2"}
{"variant": "A3C U56A A91G G140A", "polymerase ribozyme fitness (log ratio)": "≤ -4.2"}
{"variant": "A3G A12C A41C C95U C99U G124U U139A", "polymerase ribozyme fitness (log ratio)": "≤ -4.2"}
{"variant": "A3G A12C G62U G70C C79G G81A G84A A147C", "polymerase ribozyme fitness (log ratio)": "≤ -4.2"}
{"variant": "A3G A12U A29C G46C U61G A91C", "polymerase ribozyme fitness (log ratio)": "≤ -4.2"}
{"variant": "A3G A17G U31A G42A G71C U102C U111G", "polymerase ribozyme fitness (log ratio)": "≤ -4.2"}
{"variant": "A3G A17U A60U", "polymerase ribozyme fitness (log ratio)": -1.21}
{"variant": "A3G A17U C85A A106G A107U C118G U134A A142G C149U", "polymerase ribozyme fitness (log ratio)": "≤ -4.2"}
{"variant": "A3G A19C G92A A98G", "polymerase ribozyme fitness (log ratio)": -3.18}
{"variant": "A3G A19U A40C A60C C85G", "polymerase ribozyme fitness (log ratio)": "≤ -4.2"}
{"variant": "A3G A20C A23G U135A A150C", "polymerase ribozyme fitness (log ratio)": "≤ -4.2"}
{"variant": "A3G A20C U53A G81C A121G", "polymerase ribozyme fitness (log ratio)": -1.59}
{"variant": "A3G A21C A60G C76A C85G", "polymerase ribozyme fitness (log ratio)": -0.977}
{"variant": "A3G A21U A66U G84U C87A", "polymerase ribozyme fitness (log ratio)": "≤ -4.2"}
{"variant": "A3G A23C C75A G88A C99G C108U G143C", "polymerase ribozyme fitness (log ratio)": "≤ -4.2"}
{"variant": "A3G A23G A64G C79G A91U G124U G133U", "polymerase ribozyme fitness (log ratio)": "≤ -4.2"}
{"variant": "A3G A23U C85A A106U G133U G143U", "polymerase ribozyme fitness (log ratio)": "≤ -4.2"}
{"variant": "A3G A23U G50C C51U C85G C116U", "polymerase ribozyme fitness (log ratio)": "≤ -4.2"}
{"variant": "A3G A24G C54G C87A G124U", "polymerase ribozyme fitness (log ratio)": "≤ -4.2"}
{"variant": "A3G A26U C72U", "polymerase ribozyme fitness (log ratio)": "≤ -4.2"}
{"variant": "A3G A29G U82A", "polymerase ribozyme fitness (log ratio)": "≤ -4.2"}
{"variant": "A3G A30U G48C C63G G92A C96G C105G C108U", "polymerase ribozyme fitness (log ratio)": "≤ -4.2"}
{"variant": "A3G A37G U53G C57U A73G C95G A138G", "polymerase ribozyme fitness (log ratio)": "≤ -4.2"}
{"variant": "A3G A39U A66U G71A G88A C96G C103G A107U A147C G152U", "polymerase ribozyme fitness (log ratio)": "≤ -4.2"}
{"variant": "A3G A47C C57G G92U C103G C114U C125U G141U", "polymerase ribozyme fitness (log ratio)": "≤ -4.2"}
{"variant": "A3G A73U A121U", "polymerase ribozyme fitness (log ratio)": -0.51}
{"variant": "A3G A89G C93U A137C A138U G140A", "polymerase ribozyme fitness (log ratio)": "≤ -4.2"}
{"variant": "A3G C8G A28G G46U G50A G67C G92C A107U G143U", "polymerase ribozyme fitness (log ratio)": "≤ -4.2"}
{"variant": "A3G C10A A12G G59U A66G C72G C85U", "polymerase ribozyme fitness (log ratio)": "≤ -4.2"}
{"variant": "A3G C10G A19U U55A C87A C93U G100C U104G A138U U146C", "polymerase ribozyme fitness (log ratio)": "≤ -4.2"}
{"variant": "A3G C10G A41G C76A U145A", "polymerase ribozyme fitness (log ratio)": "≤ -4.2"}
{"variant": "A3G C14G A147U", "polymerase ribozyme fitness (log ratio)": -2.9}
{"variant": "A3G C14U G34A G48A C85A G126U G136A U144G", "polymerase ribozyme fitness (log ratio)": "≤ -4.2"}
{"variant": "A3G C18G A21U C75G C85U", "polymerase ribozyme fitness (log ratio)": "≤ -4.2"}
{"variant": "A3G C27U U55A U90C G94U C114G C116A", "polymerase ribozyme fitness (log ratio)": "≤ -4.2"}
{"variant": "A3G C35A U144A", "polymerase ribozyme fitness (log ratio)": "≤ -4.2"}
{"variant": "A3G C63U A66C A73U C85A A91C U109G", "polymerase ribozyme fitness (log ratio)": "≤ -4.2"}
{"variant": "A3G C63U A73G G86U U135A", "polymerase ribozyme fitness (log ratio)": -3.75}
{"variant": "A3G C75G A91U C95U A97C C108A A122C U127A C131U G140C A147C", "polymerase ribozyme fitness (log ratio)": "≤ -4.2"}
{"variant": "A3G C76A C85U A122U G133U A137G G140C", "polymerase ribozyme fitness (log ratio)": "≤ -4.2"}
{"variant": "A3G C85U", "polymerase ribozyme fitness (log ratio)": -1.05}
{"variant": "A3G C93A C108U C125G A142G U145G U146A", "polymerase ribozyme fitness (log ratio)": "≤ -4.2"}
{"variant": "A3G C93U", "polymerase ribozyme fitness (log ratio)": -1.78}
{"variant": "A3G C96U C105A A107U G133A U144A U145C", "polymerase ribozyme fitness (log ratio)": "≤ -4.2"}
{"variant": "A3G G11A A17G A22C A60U U82C C87U C96U", "polymerase ribozyme fitness (log ratio)": "≤ -4.2"}
{"variant": "A3G G11U A52G G84U A110G", "polymerase ribozyme fitness (log ratio)": "≤ -4.2"}
{"variant": "A3G G34A G86C C87U C125A", "polymerase ribozyme fitness (log ratio)": "≤ -4.2"}
{"variant": "A3G G48U C79G A89C U111G", "polymerase ribozyme fitness (log ratio)": "≤ -4.2"}
{"variant": "A3G G50C A120G C129A", "polymerase ribozyme fitness (log ratio)": "≤ -4.2"}
{"variant": "A3G G71C C96A", "polymerase ribozyme fitness (log ratio)": "≤ -4.2"}
{"variant": "A3G U4A C54U U102G C125G", "polymerase ribozyme fitness (log ratio)": -3.99}
{"variant": "A3G U6A A39U G84U U134A U144C A150U", "polymerase ribozyme fitness (log ratio)": "≤ -4.2"}
{"variant": "A3G U6A U31G C32U A41C C51U G94U C96A G136U", "polymerase ribozyme fitness (log ratio)": "≤ -4.2"}
{"variant": "A3G U6G A37C A47C G71A C95U C105A U135A G140U", "polymerase ribozyme fitness (log ratio)": "≤ -4.2"}
{"variant": "A3G U6G U90G C103U G141C", "polymerase ribozyme fitness (log ratio)": "≤ -4.2"}
{"variant": "A3G U7G C27U G68C C99G C125U U127G", "polymerase ribozyme fitness (log ratio)": "≤ -4.2"}
{"variant": "A3G U7G G46A A47U C51U G94C C125U G143A", "polymerase ribozyme fitness (log ratio)": "≤ -4.2"}
{"variant": "A3G U9G G48C G141C", "polymerase ribozyme fitness (log ratio)": "≤ -4.2"}
{"variant": "A3G U13A U56A C96A A138G", "polymerase ribozyme fitness (log ratio)": "≤ -4.2"}
{"variant": "A3G U13C A98U A107U", "polymerase ribozyme fitness (log ratio)": -4}
{"variant": "A3G U15A U90C G94U G124A C125U", "polymerase ribozyme fitness (log ratio)": "≤ -4.2"}
{"variant": "A3G U31G C75U G83C", "polymerase ribozyme fitness (log ratio)": "≤ -4.2"}
{"variant": "A3G U31G G50A C95G C118G A138C U146A G152U", "polymerase ribozyme fitness (log ratio)": "≤ -4.2"}
{"variant": "A3G U33G G58A C75A A142C G152A", "polymerase ribozyme fitness (log ratio)": "≤ -4.2"}
